Measured values as given in PubChem BioAssay AID504832 (National Center for Advancing Translational Sciences (NCATS), 2011).
“And” between values parts separate entries of the source, which are not always exact repeats. Identical values can stand only once. Hit rate of the full screen: of about 310,000 compounds, about 18,000 (5.8%) were called active. The shares of active, inactive and inconclusive entries below differ from those in the screen. Calls come from the whole dose curve; as a rule, active = well fitted inhibition curve with a large enough effect; inconclusive = small, poorly fitted or top-dose-only effect, or another doubt; inactive = no such curve, though single readings can be large or run the other way. Potencies of inconclusive entries are doubtful fits and often do not repeat.

Experiment: Primary qHTS for delayed death inhibitors of the malarial parasite plastid, 48 hour incubation
Details: P. falciparum luciferase growth in erythrocytes; series mostly up to 28.7 µM
How it was run: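 First compound was added to culture medium, then infected red cells at 0.1% parasitemia and 2% hematocrit (final). After incubation at 37 C under 5% CO2, luciferase detection reagent was dispensed and light output recorded.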
Potency is the fitted concentration of half-maximal effect; tags give direction and shape of the fitted curve.

SMILES	Potency
CCn1cc(C(=O)NCCC(C)C)c(=O)c2cc(F)c(N3CCN(C(=O)c4ccco4)CC3)cc21	inconclusive: 2.08 µM [inhibitor, partial curve]
O=C(Nc1cccc(C(F)(F)F)c1)Nc1ccc(N2CCCC2)c(S(=O)(=O)Nc2ccccc2Cl)c1	inconclusive: 10.4 µM [inhibitor, single point]
CCOC(=O)c1ccccc1NC(=O)CSc1nnc(COc2ccccc2)n1CC	inconclusive: 13.1 µM [inhibitor, single point]
CC(=O)C1=C(C)N2CCN=C2S1	inactive
CC1Cc2nc(SCC(=O)N3CCc4ccccc43)n(C)c(=O)c2S1 (centres undefined)	inactive
Cc1ccc(C)c(N2CCN(S(=O)(=O)c3cc4c(cc3C)NC(=O)CO4)CC2)c1	inactive
CCc1c(C)nc2cc(-c3ccc(OC)c(OC)c3)nn2c1N1CCCC1	active: 13.1 µM
CCCCCn1nc(C(=O)N(CCOC)c2c(N)n(CCCC)c(=O)[nH]c2=O)c2ccccc2c1=O	inconclusive: 18.5 µM [inhibitor, single point]
Cc1ccc2nc(-c3ccc(NC(=O)c4cccnc4)cc3)oc2c1	active: 9.28 µM
COc1ccc(Cc2nccc3cc(OC)c(OC)cc23)cc1OC	inconclusive: 3.22 µM [inhibitor, partial curve, poor fit] and inconclusive: 14.7 µM [inhibitor, partial curve]
COc1ccc(/C=C(\C#N)C(=O)NCc2cccs2)cc1OC	inactive
COc1ccc(/C=C/c2nc(C#N)c(NCCN(C)C)o2)cc1OC	inactive
CCN(CC)CCN1C(=O)C2C3c4ccccc4C(c4ccccc43)C2C1=O (centres undefined)	inconclusive: 20.8 µM [inhibitor, single point]
Cn1nc(C(F)(F)F)c(C(=O)Nc2ccc(F)cc2F)c1Sc1ccc(C(F)(F)F)cc1	inconclusive: 9.28 µM [inhibitor, partial curve]
COc1cc(Cl)c(CC(=O)c2c[nH]c3ccccc23)cc1OC	inconclusive: 9.28 µM [inhibitor, single point]
Cc1ccc(CN2CCCN(Cc3ccccc3C)S2(=O)=O)cc1	inactive
O=C(CCN1C(=O)/C(=C\C=C\c2ccccc2)SC1=S)Nc1cccc(C(=O)O)c1	inactive
O=C(COC(=O)c1ccccc1NCCO)NCCC1=CCCCC1	inconclusive: 18.5 µM [inhibitor, single point]
CCOCC(=O)Nc1c(C(=O)Nc2ccccc2OC)oc2ccccc12	inactive
CC1CCc2c(C(=O)Oc3cccc(-n4cnnn4)c3)csc2C1 (centres undefined)	active: 5.86 µM
CCc1cccc(NC(=O)CN(c2ccc(C)cc2)S(=O)(=O)c2c(C)noc2C)c1	inconclusive: 14.7 µM [inhibitor, single point]
COc1ccc(C)cc1-n1c(SCC(=O)Nc2cc(C)on2)nc2sc(C)c(C)c2c1=O	active: 9.28 µM

SMILES	Potency
O=C(CSc1nc(=O)n2ccccc2n1)N1N=C(c2cccs2)CC1c1ccc(F)cc1 (centres undefined)	inconclusive: 9.28 µM [inhibitor, partial curve, poor fit]
COc1cc(/C=N/Nc2cccc3cccnc23)cc(OC)c1O	inconclusive: 18.5 µM [inhibitor, single point]
CC(COc1ccc(/C=C/c2ccccc2)cc1)[N+](C)(C)C (centres undefined)	active: 1.31 µM
C=C(C)c1cccc(C(C)(C)NC(=O)N(C)C2CCN(C)CC2)c1	inconclusive: 3.29 µM [inhibitor, partial curve, poor fit]
COc1ccc(-c2[nH]ncc2CNCC(C)(C)N2CCOCC2)cc1F	inactive
Cc1ccc(S(=O)(=O)Cn2nnnc2C(C)N2CCN(C(=O)c3ccco3)CC2)cc1 (centres undefined)	active: 10.4 µM
COc1ccccc1C(=O)OC(C)CN1CCN(C)CC1 (centres undefined)	inconclusive: 20.8 µM [inhibitor, single point]
CC1=C/C(=N\NC(=S)NCc2ccccc2)CC1	inconclusive: 10.4 µM [inhibitor, partial curve]
O=C(Nc1ccncc1)C1CCN(S(=O)(=O)c2ccc(Cl)c(C(F)(F)F)c2)CC1	inconclusive: 10.4 µM [inhibitor, single point]
COc1ccc(CNC(=O)C(NC(C)=O)C(=O)Nc2ccc(C(C)C)cc2)cc1 (centres undefined)	inconclusive: 0.294 µM [inhibitor, partial curve, poor fit]
COc1cc(NC(=O)CCc2nnc3ccc(N4CCCCC4)nn23)cc(OC)c1OC	inconclusive: 11.7 µM [inhibitor, partial curve, poor fit]
CCOc1ccc(C(c2nnnn2C(C)(C)C)N2CCN(C(=O)c3ccco3)CC2)cc1 (centres undefined)	inconclusive: 10.4 µM [inhibitor, single point]
COCc1cc(C)nc(SCC[N+](C)(C)CC(=O)Nc2cccc(C(F)(F)F)c2)c1C#N	inconclusive: 2.33 µM [inhibitor, full curve, poor fit]
COc1ccc(C(=O)Nc2ccc(N3CCCC3)cc2)cc1OC	inactive
COc1ccc(C(=O)NC(=S)NCc2cccnc2)cc1[N+](=O)[O-]	inactive
c1ccc(C[n+]2csc3ccccc32)cc1	inactive
COc1ccc(C2CC(c3cccs3)=NN2C(=O)CSc2nncn2C)cc1OC (centres undefined)	inactive
CN1CCc2c(sc3nc(NN)n(Cc4ccccc4)c(=O)c23)C1	active: 3.7 µM
CCc1cc[n+](/C(C(=S)Nc2cccc(C)c2)=C(/[O-])c2ccc(C)c([N+](=O)[O-])c2)cc1	inconclusive: 11.7 µM [inhibitor, single point]
C=CCN=C1NN=C(c2cc(C)n(CCOC)c2C)CS1	inconclusive: 5.22 µM [inhibitor, partial curve, poor fit]
CC(=NCCN1CCCCC1)c1c(O)n(Cc2ccccc2)c(=O)[nH]c1=O	inconclusive: 18.5 µM [inhibitor, single point]
COc1ccc(/C=C2\CCCC3C2=NN(C(=O)c2scnc2C)C3c2ccc(OC)c(OC)c2)cc1OC (centres undefined)	inconclusive: 4.65 µM [inhibitor, partial curve]
